Assay results from patent publication US20240400691A1 (FBD BIOLOGICS, published 2024).

Experiments:
[1] = molecular target: T1, human CD47 (human, UniProt Q08722); experiment: flow cytometry on untransfected DLD1 cells in a 1:1 mixture with PD-L1 tf DLD1 cells; CD47 as the target on DLD1 is inferred from the controls of FIGS. 6A-6E, the filing does not name it [I]
T1 construct: whole, on cells; also called CD47 tf CHO-S; endogenous CD47 on FaDu and NCI-H460 cells

[2] = molecular target: T2, human PD-L1 (human, UniProt Q9NZQ7); experiment: flow cytometry on PD-L1 tf DLD1 cells in a 1:1 mixture with DLD1 cells, PE goat anti-human IgG; these cells also bind the anti-CD47 controls (FIGS. 6A-6B), so the CD47 arm may add to the signal [I]
T2 construct: whole, on cells; For the PD-L1 tf DLD1 cells the species of PD-L1 is not restated; also called PD-L1 tf CHO-S; PD-L1 tf DLD1

[3] = molecular target: T1, human CD47; experiment: flow cytometry on CD47 tf CHO-S cells, PE goat anti-human IgG; EC50 from the table under the curves
[4] = molecular target: T2, human PD-L1; experiment: flow cytometry competition on PD-L1 tf CHO-S cells against a fixed concentration of biotinylated PD1_G4, streptavidin-PE; IC50 from the table under the curves
[5] = molecular target: T1, human CD47; experiment: flow cytometry competition on CD47 tf CHO-S cells against a fixed concentration of biotinylated SIRPα_G4, streptavidin-PE; IC50 from the table under the curves
[6] = molecular target: T2, human PD-L1; experiment: flow cytometry on PD-L1 tf CHO-S cells, PE goat anti-human IgG; EC50 from the table under the curves
[7] = molecular target: T3, human TGFβ1 (human, UniProt P01137 partial chain); experiment: ELISA, plate coated with 0.5 µg/ml human TGFβ1, HRP secondary antibody, OD450
T3 construct: also called hTGFβ1

[8] = molecular target: T1, human CD47; experiment: flow cytometry on untransfected DLD1 cells in a 1:1 mixture with PD-L1 tf DLD1 cells; CD47 as the target on DLD1 is inferred from the controls of FIGS. 6A-6E, the filing does not name it [J]
[9] = molecular target: T2, human PD-L1; experiment: flow cytometry on PD-L1 tf DLD1 cells in a 1:1 mixture with DLD1 cells, PE goat anti-human IgG; these cells also bind the anti-CD47 controls (FIGS. 6A-6B), so the CD47 arm may add to the signal [J]
[10] = molecular target: T1, human CD47; experiment: flow cytometry on untransfected DLD1 cells in a 1:1 mixture with PD-L1 tf DLD1 cells; CD47 as the target on DLD1 is inferred from the controls of FIGS. 6A-6E, the filing does not name it [K]
[11] = molecular target: T2, human PD-L1; experiment: flow cytometry on PD-L1 tf DLD1 cells in a 1:1 mixture with DLD1 cells, PE goat anti-human IgG; these cells also bind the anti-CD47 controls (FIGS. 6A-6B), so the CD47 arm may add to the signal [K]
[12] = molecular target: T2, human PD-L1; experiment: flow cytometry on PD-L1 tf DLD1 cells in a 1:1 mixture with DLD1 cells, PE goat anti-human IgG

T2 sequence (Q9NZQ7 19-290): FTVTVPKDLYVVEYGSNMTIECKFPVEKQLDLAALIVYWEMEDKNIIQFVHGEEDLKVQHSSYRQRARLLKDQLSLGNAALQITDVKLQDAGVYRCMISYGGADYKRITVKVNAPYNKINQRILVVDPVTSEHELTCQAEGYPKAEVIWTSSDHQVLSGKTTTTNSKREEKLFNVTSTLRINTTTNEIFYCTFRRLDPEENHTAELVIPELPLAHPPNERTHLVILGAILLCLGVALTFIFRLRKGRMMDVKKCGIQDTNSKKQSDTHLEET
Sequence of human TGFβ1 (P01137 279-390 limits assumed): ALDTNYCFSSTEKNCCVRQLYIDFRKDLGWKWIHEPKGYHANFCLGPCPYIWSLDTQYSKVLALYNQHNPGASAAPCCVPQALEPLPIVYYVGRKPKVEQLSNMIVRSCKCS

B1: SP_G4_v5 (Fc fusion)
chain: EEELQVIQPDKSVSVAAGESAILTCTVTSLYPVGPIQWFRGAGPARELIYNQKRQTFPRVTTVSESTKRFNMDFSISISNITPADAGTYYCVKFRKGSPDTEFKSGAGTELSVRAKPSGSGGSGGSGGSGGSGGSGQVQLVESGGGVVQPGRSLRLSCAASGGPFMSYAMGWFRQAPGKEREFVAAIRWNGISTFYADSVKGRFTISRDNSKNTLYLQMNSLRAEDTAVYYCAAAQTIVTVPENYHFDYWGQGTQVTVSS[human IgG4 Fc with S228P (EU numbers) not shown]
notes: also called HCB301_v5 protein; double-targeting format
**Q.** B1 was tested. Which “EC50 (read off the curve)” value [1] did it give?
**A.** ~5 nM

**Q.** And the “EC50 (read off the curve)” value [2]?
**A.** ~1 nM

**Q.** What about the EC50 [3] of the same binder?
**A.** 0.79 nM

**Q.** And the IC50 [4]?
**A.** 0.614 nM

**Q.** What about the IC50 [5] of the same binder?
**A.** 0.999 nM

**Q.** What about the EC50 [6] of the same binder?
**A.** 0.48 nM

**Q.** Does B1 bind [7]?
**A.** no binding (tested: 500 nM)

B2: SP_G1_v5 (Fc fusion)
chain: EEELQVIQPDKSVSVAAGESAILTCTVTSLYPVGPIQWFRGAGPARELIYNQKRQTFPRVTTVSESTKRFNMDFSISISNITPADAGTYYCVKFRKGSPDTEFKSGAGTELSVRAKPSGSGGSGGSGGSGGSGGSGQVQLVESGGGVVQPGRSLRLSCAASGGPFMSYAMGWFRQAPGKEREFVAAIRWNGISTFYADSVKGRFTISRDNSKNTLYLQMNSLRAEDTAVYYCAAAQTIVTVPENYHFDYWGQGTQVTVSS[human IgG1 Fc with changes not shown]
notes: as for B1
**Q.** With B2 as the binder, how does the EC50 [3] read?
**A.** 0.8 nM

**Q.** What about the “EC50 (read off the curve)” value [8] of the same binder?
**A.** ~4 nM

**Q.** And the IC50 [4]?
**A.** 0.413 nM

**Q.** And the IC50 [5]?
**A.** 0.694 nM

**Q.** What about the “EC50 (read off the curve)” value [9] of the same binder?
**A.** ~1 nM

**Q.** What about the EC50 [6] of the same binder?
**A.** 0.31 nM

**Q.** Does B2 bind [7]?
**A.** no binding (tested: 500 nM)

B3: PS_G1_v5 (Fc fusion)
chain: QVQLVESGGGVVQPGRSLRLSCAASGGPFMSYAMGWFRQAPGKEREFVAAIRWNGISTFYADSVKGRFTISRDNSKNTLYLQMNSLRAEDTAVYYCAAAQTIVTVPENYHFDYWGQGTQVTVSSGSGGSGGSGGSGGSGGSGEEELQVIQPDKSVSVAAGESAILTCTVTSLYPVGPIQWFRGAGPARELIYNQKRQTFPRVTTVSESTKRFNMDFSISISNITPADAGTYYCVKFRKGSPDTEFKSGAGTELSVRAKPS[human IgG1 Fc with changes not shown]
notes: as for B1
**Q.** Which “EC50 (read off the curve)” value [10] does the source give for B3 here?
**A.** ~3 nM

**Q.** And the “EC50 (read off the curve)” value [11]?
**A.** ~1 nM

**Q.** And the EC50 [3]?
**A.** 0.75 nM

**Q.** And the IC50 [4]?
**A.** 0.398 nM

**Q.** And the IC50 [5]?
**A.** 1.2 nM

**Q.** What about the EC50 [6] of the same binder?
**A.** 0.28 nM

**Q.** Does B3 bind [7]?
**A.** no binding (tested: 500 nM)

B4: G4_TGFβRII_mt4 (Fc fusion)
chain: [human IgG4 Fc with S228P (EU numbers) not shown]AGGGGSGGGGSGGGGSGGGGSGIPPHVQKSVNNDMIVTDNNGAVKFPQLCKFCDVRFSTCDNQKSCMSNCEITSICEKPQEVCVAVWRKNDENITLETVCHDPKLPYHDFILEDAASPKCIMKEKKKPGETFFMCSCSSEECNDNIIFSEEYNTSNPD
notes: TGFβ trap control protein
**Q.** What does the source list for B4?
**A.** binding result [12]: no binding (tested: 500 nM); EC50 (read off the curve) [7]: ~0.4 nM
